For assay [1], the target named is T1, recombinant E. coli-expressed human IL-13 (human, UniProt P35225 part only).
T1 construct: made and purified at GSK; also called Interleukin-13; rhIL-13
Kind of assay: SPR.

Assay [2] addresses T2, recombinant E. coli-expressed human IL-18 (human, UniProt Q14116 37-193). Kind of assay: SPR. For orientation: In SPR one partner is held on a chip, and binding of the other changes the refractive index at the surface.
Assay [3] addresses T3, recombinant E. coli-expressed human IL-4 (human, UniProt P05112 25-153).
T3 construct: made and purified at GSK; also called Interleukin-4; rhIL-4
T3 sequence: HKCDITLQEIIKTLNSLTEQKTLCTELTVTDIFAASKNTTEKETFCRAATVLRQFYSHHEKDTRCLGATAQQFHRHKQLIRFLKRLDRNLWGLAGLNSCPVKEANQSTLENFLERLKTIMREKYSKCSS
The assay is described as follows: SPR stoichiometry, IL-4 injected 1st.

The target of assay [4] is T3, recombinant E. coli-expressed human IL-4. Kind of assay: SPR stoichiometry, IL-4 injected 2nd.
For assay [5] the target is unchanged. Kind of assay: SPR stoichiometry, IL-4 injected 3rd.
The target of assay [6] is T1, recombinant E. coli-expressed human …. The assay is described as follows: SPR stoichiometry, IL-13 injected 1st.
For assay [7] the target is unchanged. Kind of assay: SPR stoichiometry, IL-13 injected 2nd.
For assay [8] the target is unchanged. The assay is described as follows: SPR stoichiometry, IL-13 injected 3rd.
Assay [9] deals with T2, recombinant E. coli-expressed human …. Kind of assay: SPR stoichiometry, IL-18 injected 1st.
Assay [10] shares this target. Kind of assay: SPR stoichiometry, IL-18 injected 2nd.
Assay [11] shares this target. Kind of assay: SPR stoichiometry, IL-18 injected 3rd.

Where “and” joins values, the source holds several entries; their conditions need not be identical. Identical values can stand only once.

The values that follow come from US20110008345A1 (GlaxoSmithKline, published 2011).

B1: IL18mAb-210-474 (other)
heavy: QVQLVQSGAEVKKPGASVKVSCKVSGEISTGYYFHWVRQAPGKGLEWMGRIDPEDDSTKYAERFKDRVTMTEDTSTDTAYMELSSLRSEDTAVYYCTTWRIYRDSSGRPFYVMDAWGQGTLVTVSS[human IgG1 constant region omitted]GGGGSEVQLLESGGGLVQPGGSLRLSCAASGFTFRNFGMGWVRQAPGKGLEWVSWIISSGTETYYADSVKGRFTISRDNSKNTLYLQMNSLRAEDTAVYYCAKSLGRFDYWGQGTLVTVSS
light: DIQMTQSPSSVSASVGDRVTITCLASEDIYTYLTWYQQKPGKAPKLLIYGANKLQDGVPSRFSGSGSGTDYTLTISSLQPEDFATYYCLQGSKFPLTFGQGTKLEIKRTVAAPSVFIFPPSDEQLKSGTASVVCLLNNFYPREAKVQWKVDNALQSGNSQESVTEQDSKDSTYSLSSTLTLSKADYEKHKVYACEVTHQGLSSPVTKSFNRGECGGGGSGVQLLESGGGLVQPGGSLRLSCAASGFTFAWYDMGWVRQAPGKGLEWVSSIDWHGEVTYYADSVKGRFTISRDNSKNTLYLQMNSLRAEDTAVYYCATAEDEPGYDYWGQGTLVTVSS
notes: trispecific mAbdAb; also called trispecific anti-IL18 mAb-anti-IL4dAb-anti-IL13dAb
With B1, the dissociation constant Kd – broadly, the free concentration of one partner at which half of the binding sites on the other are occupied at equilibrium, for simple one-to-one binding – is 0.99 nM and 1 nM in [1]; 0.011 nM and 0.014 nM in [2]. The Stoichiometry in [3] was 0.9; in [4], 0.9; in [5], 0.8; in [6], 1.6; in [7], 1.7; in [8], 1.8. The Stoichiometry in assay [9] was determined as 1.8; in assay [10] it was 1.8; in assay [11] it was 1.7.
